From patent publication US20120142682A1, “ANT[…] INHIBITING BACTERIAL MONO-ADP-RIBOSYLT[…]” (UNIVERSITY OF GUELPH, priority 2010, published 2012)
At least one structure is not confirmed: it was looked up by name or label, or the drawing left a doubt. Some of these results come from one statement about several compounds together.

Experiments:
[1] = tested on: ExoA intoxicated C38 cells; format: cell-based, Human
[2] = tested on: Saccharomyces cerevisiae cells expressing the catalytic domain of P. aeruginosa ExoA (ExoAc); assay: Yeast-based compound screen; format: cell-based; design: key to the marks not given beside the values; details: compound 50 μM; w303 strain; growth restored

Structure (SMILES)	Protection in C38 cells [1]	also measured
O=c1[nH]nc2c3c(cccc13)N=CN2 [Compound P7]	toxic	
CCN(CC)CCn1c(NCc2nc3ccccc3n2Cc2ccccc2)nc2ccccc21 [Compound V3]	toxic	
CCn1c(SCc2nc3ccccc3c(=O)[nH]2)nnc1-c1ccc(Cl)cc1 [Compound V15]	++	
O=C1NCC2c3cc(S(=O)(=O)O)ccc3Oc3cccc1c32 (stereo not shown) [Compound P8]	+	
Cn1c(=O)c2[nH]c(CN3CCc4ccccc4C3)nc2n(C)c1=O [Compound V12]	++	
CCOC(=O)c1cnc2ccc(OCC)cc2c1Nc1ccc(C)cc1C [Compound V28]	toxic	
CN(C)Cc1nc2cccc3c2n1CCNC3=O [Compound P4]	++++	LD50 of ExoA in the presence of compound [1]: > 1000 ng/mL; protection of C38 cells [1]: over 90%
CCN(CC)CCn1c(NCc2ccc(F)cc2)nc2ccccc21.Cl.Cl [Compound V24]	++	
O=C1NCCn2c(CCc3ccc(CN4CCCC4)cc3)nc3cccc1c32 [Compound P5]	++++	LD50 of ExoA in the presence of compound [1]: > 1000 ng/mL; protection of C38 cells [1]: over 90%
CC1=C(C)C2C(=O)CC(SCC(=O)NCCO)=CC2S1 (stereo not shown) [Compound V30]		LD50 of ExoA in the presence of compound [1]: > 1000 ng/mL; increase of the LD50 of ExoA [1]: 30-40 fold
Cc1[nH]c2ccccc2c1CN1CCN(c2ccccn2)CC1 [Compound V14]	−	
O=C1NN=C(CN2CCOCC2)c2c[nH]c3cccc1c23 [Compound P1]	++++	LD50 of ExoA in the presence of compound [1]: > 1000 ng/mL; protection of C38 cells [1]: over 90%
Cn1c(=O)[nH]c(=O)c2c1nc(N1CCCCC1)n2CCCSc1nc2ccccc2s1 [Compound V19]	toxic	
O=c1[nH]c2ccccc2c2ccccc12 [PJ97A, reference compound]	+++	Protection in Yeast [2]: +++
CC(=O)Nc1c(Nc2ccccc2)c2ccccc2oc1=O [Compound V31]	+	
O=C(C1CCCN(Cc2c[nH]c3ccccc23)C1)N1CCCCCC1 (stereo not shown) [Compound V13]	−	
COC(=O)c1[nH]c(C)c(C(=O)C2=C(O)C(=O)N(CCCN3CCOCC3)C2c2ccccn2)c1C (stereo not shown) [Compound V21]	+	

Structure (SMILES)	Protection in C38 cells [1]	also measured
O=C(CCCC(=O)Nc1ccc(F)c(Cl)c1)Nc1ccc(F)c(Cl)c1 [Compound V5]	toxic	
Nc1c(C(=O)Nc2ccc(S(N)(=O)=O)cc2)sc2nc3c(cc12)CCCC3 [Compound V6]	−	
O=C(CC1C(=O)NCCN1C(=O)CN1CCN(CCO)CC1)Nc1ccccc1 (stereo not shown) [Compound V20]	−	
CC1CCCCN1c1nc2c(c(=O)[nH]c(=O)n2C)n1Cc1ccccc1 (stereo not shown) [Compound V29]	+	
Nc1ccc2c3c(cccc13)C(=O)NC2=O [Compound 4-NAP, reference compound]	+++	
COc1ccc(Nc2nc(N3CCN(CCO)CC3)nc3ccccc23)c(OC)c1 [Compound V8]	−	
O=C1NC(=O)c2cccc3cccc1c23 [NAP, 1,8-naphthalimide, reference compound]		LD50 of ExoA in the presence of compound [1]: > 1000 ng/mL; increase of the LD50 of ExoA [1]: 30-40 fold
CCc1ccc2ncc(C(=O)O)c(O)c2c1 [Compound V27]	−	
Cn1c(=O)c2[nH]c(CNCc3ccccc3Cl)nc2n(C)c1=O [Compound V17]	++	
O=c1cc(NCCNc2cc(=O)oc3ccccc23)c2ccccc2o1 [Compound V1]	−	
CC1(C)C(=O)N(CC(O)Cn2cnc3ccccc32)C(=O)N1CN1C(=O)N(CC(O)Cn2cnc3ccccc32)C(=O)C1(C)C (stereo not shown) [Compound V11]	+	
Cc1cc(Nc2ccc(O)cc2)c2ccccc2n1.Cl [Compound V16]	+	
O=C(Nc1c2ccccc2nc2ccccc12)c1ccc([N+](=O)[O-])cc1 [Compound V7]	toxic	
CN1CCN(C2CCC3NC(O)C4CCCCC4C3N2)CC1 (stereo not shown) [Compound P3]	toxic	
CCOC(=O)c1[nH]c(C)c(C(=O)C2=C(O)C(=O)N(CCCN3CCOCC3)C2c2cccc(F)c2)c1C (stereo not shown) [Compound V25]	+	
Brc1cccc(CNc2nc3ccccc3n2CCN2CCOCC2)c1 [Compound V26]	+	
O=C(NCCNc1ccnc2cc(Cl)ccc12)c1ccccc1F [Compound V4]	toxic	
